Results taken from the RNAGym collection of RNA variant scans (doi:10.1101/gad.245936.114).
Variants at the background level are over-represented here.

B1: tRNA (parent)
chain: CUCUCGGUAGCCAAGUUGGUUUAAGGCGCAAGACUUUAAUUUAUCACUACGAAAUCUUGAGAUCGGGCGUUCGACUCGCCCCCGGGAGAUUUUUUCCUCGAGCAA

Variants of: B1
Test: nonsense suppression (GFP-seq) (ratio to wild type); higher = more function; SUP4oc tRNA, yeast GFP reporter sort-seq
Method in brief: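 To measure nonsense suppression, tRNA variants from a library carrying ~3% random mutations were integrated into the yeast genome alongside RFP and a GFP ochre reporter under galactose control. Growth took place in raffinose/galactose medium supplemented with 80 mg/L adenine, followed by sorting into GFP/RFP bins and Illumina sequencing of each bin (phred ≥30). For each variant with ≥100 reads and ≥30 cells, the bin median GFP/RFP values were weighted by its estimated cell share per bin and referenced to the unmutated parent tRNA.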

Variant | nonsense suppression
C5G A31U G66C | ≤ 0.026
C5G A33C C77G A87U | ≤ 0.026
C5G A33G G88U | ≤ 0.026
C5G A33U G59C | ≤ 0.026
C5G A54U G66C G67U | ≤ 0.026
C5G A60C C64A | ≤ 0.026
C5G A60G | ≤ 0.026
C5G A60U | ≤ 0.026
C5G A74C G88A | ≤ 0.026
C5G A74U | ≤ 0.026
C5G A87U | ≤ 0.026
C5G C11A C72G | ≤ 0.026
C5G C11A U57G | ≤ 0.026
C5G C11U U17A G66A | ≤ 0.026
C5G C12A | ≤ 0.026
C5G C12G | 0.174
C5G C27G C75A | ≤ 0.026
C5G C27U A60C C80A | ≤ 0.026
C5G C27U A62C U76G | ≤ 0.026
C5G C29G G67U | ≤ 0.026
C5G C29U C56A U63C | ≤ 0.026

Variant | nonsense suppression
C5G C34A G86C | ≤ 0.026
C5G C34G G85C | ≤ 0.026
C5G C56G | ≤ 0.026
C5G C56U C79A | ≤ 0.026
C5G C64G A74G C75A | ≤ 0.026
C5G C64U G78C | ≤ 0.026
C5G C82G G88U | ≤ 0.026
C5G C83A A89C | ≤ 0.026
C5G G6A U71G | ≤ 0.026
C5G G6U G28A A89G | ≤ 0.026
C5G G6U G84A G88U A89U | ≤ 0.026
C5G G7A A33U | ≤ 0.026
C5G G7C A13U A14U G28A U57G G66C | ≤ 0.026
C5G G7C G19C A54G | ≤ 0.026
C5G G7U | ≤ 0.026
C5G G7U C29A | ≤ 0.026
C5G G10A U21C | ≤ 0.026
C5G G10C | ≤ 0.026
C5G G10C A33U | ≤ 0.026
C5G G10U A13U G28C G69A C82U | ≤ 0.026
C5G G15A U16A U17C A23G G61U A87U | ≤ 0.026

Variant | nonsense suppression
C5G G18C C81G | ≤ 0.026
C5G G18U | ≤ 0.026
C5G G19A U35A G88U | ≤ 0.026
C5G G19C G59A G78A | ≤ 0.026
C5G G25A C27U A30G G32A | ≤ 0.026
C5G G25C G69C | ≤ 0.026
C5G G25C G69C C80A | ≤ 0.026
C5G G25U A31G A33G C72A | ≤ 0.026
C5G G25U G67A A89G | ≤ 0.026
C5G G28U | ≤ 0.026
C5G G32C C56G | ≤ 0.026
C5G G32C C72U | ≤ 0.026
C5G G32C G65U | ≤ 0.026
C5G G61A | ≤ 0.026
C5G G65A | ≤ 0.026
C5G G66A G69A | ≤ 0.026
C5G G66U C77U | ≤ 0.026
C5G G66U U71C | ≤ 0.026
C5G G69A U70A | ≤ 0.026
C5G G69U A74U C81G | ≤ 0.026
C5G G84U | 0.475

Variant | nonsense suppression
C5G G85A | ≤ 0.026
C5G G88A | ≤ 0.026
C5G U16G | ≤ 0.026
C5G U16G A89U | ≤ 0.026
C5G U16G G78A | ≤ 0.026
C5G U17G U63C G85C | ≤ 0.026
C5G U21G | ≤ 0.026
C5G U21G C79U | ≤ 0.026
C5G U22G U70A U76C | ≤ 0.026
C5G U35A U58C G73U | ≤ 0.026
C5G U35A U63A U76A C80G | ≤ 0.026
C5G U35C U71A | ≤ 0.026
C5G U35G | ≤ 0.026
C5G U35G U55C U63C | ≤ 0.026
C5G U55G C64G G73C | ≤ 0.026
C5G U57C | ≤ 0.026
C5G U57G | ≤ 0.026
C5G U57G U71G | ≤ 0.026
C5G U58C | ≤ 0.026
C5G U70G | ≤ 0.026
C5G U71C G85A | ≤ 0.026
